Reference: paper PMC4336329 (PLoS ONE, 2015)
In all, about 310,000 compounds went through this assay and about 14,000 (4.5%) showed an effect of 50% or more. The effect is printed as a negative number. The list shows a part of the results.

target: human ether-à-go-go-related gene (hERG) potassium channel (human, UniProt Q12809); test: primary screen, population patch clamp on CHO cells stably expressing hERG
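Note: peak tail current of the secondary pulse compared with the same well before compound.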

Sequence of human ether-à-go-go-related gene (hERG) potassium channel (Q12809 whole entry, looked up): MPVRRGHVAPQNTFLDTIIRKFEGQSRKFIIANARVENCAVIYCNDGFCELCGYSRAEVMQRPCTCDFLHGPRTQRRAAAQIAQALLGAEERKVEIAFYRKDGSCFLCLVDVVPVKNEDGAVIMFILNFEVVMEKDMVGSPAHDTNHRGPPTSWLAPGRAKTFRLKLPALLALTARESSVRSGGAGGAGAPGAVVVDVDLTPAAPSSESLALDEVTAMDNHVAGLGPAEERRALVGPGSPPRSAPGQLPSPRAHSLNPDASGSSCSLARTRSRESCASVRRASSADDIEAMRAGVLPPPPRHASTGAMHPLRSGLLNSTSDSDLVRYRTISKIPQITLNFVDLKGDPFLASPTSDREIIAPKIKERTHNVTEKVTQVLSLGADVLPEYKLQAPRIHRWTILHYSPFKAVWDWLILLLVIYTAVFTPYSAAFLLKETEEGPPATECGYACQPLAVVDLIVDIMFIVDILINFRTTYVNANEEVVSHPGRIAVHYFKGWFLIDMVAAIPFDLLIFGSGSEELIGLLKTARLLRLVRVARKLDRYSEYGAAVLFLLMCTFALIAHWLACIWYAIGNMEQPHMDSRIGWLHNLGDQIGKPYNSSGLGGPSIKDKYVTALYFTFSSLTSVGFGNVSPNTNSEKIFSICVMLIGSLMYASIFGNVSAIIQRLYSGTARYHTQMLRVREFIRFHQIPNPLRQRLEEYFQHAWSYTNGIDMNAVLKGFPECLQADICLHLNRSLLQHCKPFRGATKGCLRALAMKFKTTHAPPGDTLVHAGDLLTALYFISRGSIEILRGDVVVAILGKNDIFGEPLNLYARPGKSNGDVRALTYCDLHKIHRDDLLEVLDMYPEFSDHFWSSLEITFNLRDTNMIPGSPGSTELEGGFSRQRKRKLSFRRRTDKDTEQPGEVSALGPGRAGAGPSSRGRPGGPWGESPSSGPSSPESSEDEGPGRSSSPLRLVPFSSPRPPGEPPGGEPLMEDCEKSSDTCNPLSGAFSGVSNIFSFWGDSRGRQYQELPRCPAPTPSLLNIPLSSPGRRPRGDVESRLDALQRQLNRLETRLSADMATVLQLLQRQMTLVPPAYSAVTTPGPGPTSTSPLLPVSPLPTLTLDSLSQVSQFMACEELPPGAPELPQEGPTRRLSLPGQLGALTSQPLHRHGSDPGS

| SMILES | hERG current change (%, negative = inhibition) at 10uM |
| --- | --- |
| O=C(NNc1ncnc2c1cnn2-c1cccc(Cl)c1)c1ccco1 | 11% |
| COc1ccc(N=C2C(=O)N3CCCc4cccc2c43)cc1 | -13.1% |
| COc1ccc(N(C(=O)CCl)C(C(=O)NCCc2ccccc2)c2cccs2)cc1 (stereo not shown) | -20.8% |
| CCOc1ccc(/C=N/n2nnnc2N)cc1OCC | 13.8% |
| Cc1ccccc1CC(=O)Nc1sc(C(C)C)cc1C(=O)N1CCOCC1 | -31.1% |
| COC(=O)[C@H](CCSC)NC(=O)Nc1ccc(OC)cc1OC | -1.35% |
| O=C(C[n+]1cccc(O)c1)Nc1ccc(Br)cc1.O=S(=O)([O-])c1ccc2ccccc2c1 | 23.7% |
| CC(=O)c1cnc2n(c1=O)CCS2 | 27.8% |
| C/C(=N\N=C1\NC(=O)C(CC(=O)NCc2ccccc2)S1)C(C)C (stereo not shown) | 14.5% |
| COC(=O)C1=C(C)N(CCc2ccc(OC)c(OC)c2)C(=O)/C1=C\N(C)C | 1.86% |
| Cc1cc2c(ccc3[nH]onc32)n1 | 16.8% |
| Cc1cc(=O)[nH]c2c(C)cc(S(=O)(=O)N3CCOCC3)cc12 | 9.66% |
| COc1cc(CC(NC(C)=O)C(=O)NC2CCN(c3c(Cc4ccccc4)c(C)nc4ncnn34)CC2)cc(OC)c1 (stereo not shown) | 12% |
| O=C(NC(=S)N1CCCCCC1)c1cccc([N+](=O)[O-])c1 | 3.51% |
| O=C(NC(=S)Nc1ccc2[nH]c(=O)[nH]c2c1)c1ccccc1F | 24.1% |
| CCCCn1c(-c2ccco2)nc2oc3ccccc3c(=O)c2c1=O | -29.2% |
| O=C(CCC1CCCC1)Nc1cccc(Cc2ccncc2)c1 | -44.2% |
| O=S(=O)(NCc1cccnc1)c1ccc(Br)c2ccccc12 | -9.45% |
| O=C(OCC(=O)N1CCN(C(=O)c2ccco2)CC1)c1ccc(S(=O)(=O)N2CCCCC2)cc1 | -30.6% |
| CCOc1ccccc1NC(=O)CSc1ccccc1 | -5.11% |

| SMILES | hERG current change (%, negative = inhibition) at 10uM |
| --- | --- |
| CC1(C)NC(=O)N(CCCCSc2ccc(Cl)cc2)C1=O | -20.8% |
| Cc1nn(Cc2ccc(Cl)cc2)c2sc(C(=O)OCC(N)=O)cc12 | -52.1% |
| Cc1nn(C)cc1S(=O)(=O)N1CCCCC1C (stereo not shown) | -1.81% |
| Cc1cc(C(=O)OC(C)C(=O)Nc2nc(-c3ccccc3)cs2)c(C)o1 (stereo not shown) | 2.18% |
| O=C(Nc1nc2c(F)cccc2s1)c1ccc([N+](=O)[O-])o1 | 19.7% |
| COC(=O)c1ccc(CSc2nc(C(F)F)cc(C)c2C#N)o1 | -10.5% |
| O=C(O)CCN1C(=O)/C(=C/c2ccc(-c3nc4ccccc4s3)o2)SC1=S | -1.51% |
| Cc1ccc2nc(-c3ccc(SCC(=O)O)nc3)[nH]c2c1 | 21.2% |
| CCOc1ccc(N=C(NC#N)SC)cc1 | 2.66% |
| CCC(C)(NC(=O)c1ccccn1)C(=O)NC1CCCC1 (stereo not shown) | 12.8% |
| O=C(CCn1c(=O)oc2ccccc21)NCCCN1CCCC1=O | 12% |
| Cc1ccc(NC(=O)Cc2ccccc2)c(C)c1 | 18.4% |
| COc1cc(N=Nc2cccc(S(N)(=O)=O)c2)c2ccccc2c1N | 11.8% |
| Cc1c(O)nc2ccccn2c1=O | -2.92% |
| CSc1cccc(NC(=O)CN(Cc2ccc(Cl)cc2)S(C)(=O)=O)c1 | -8.76% |
| COc1ccc(NC(=O)NNC(=O)c2ccc3ccccc3c2O)cc1OC | 19.3% |
| O=C(NCCc1ccncc1)c1ccccc1F | 6.54% |
| CCc1c(C#N)c(N)nc(SCC(=O)OCc2ccccc2)c1C#N | 3.41% |
| COc1ccccc1S(=O)(=O)NCc1ccc(C(=O)NC2CCC(O)CC2)cc1 (stereo not shown) | 7.54% |
| CC(OC(=O)/C=C/c1ccccc1)C(=O)Nc1cccc(C#N)c1 (stereo not shown) | 15.2% |

| SMILES | hERG current change (%, negative = inhibition) at 10uM |
| --- | --- |
| CCN(CC)C(=O)CN(C#N)c1nc(NC(C)C)nc(NC(C)C)n1 | 7.58% |
| COc1ccc(N2CCN(C(=O)COC(=O)CCOc3ccc(C)cc3)CC2)cc1 | 9.09% |
| COc1cccc2sc(N)nc12 | 10.9% |
| Cc1c(Br)c([N+](=O)[O-])nn1CC(=O)Nc1ccccn1 | -14.7% |
| CC(C)NC(=O)C1CCN(C(=O)C(C(=O)c2ccccc2)n2cc(Cl)ccc2=O)CC1 (stereo not shown) | 6.17% |
| Nc1c2c(nc3ccc(Br)cc13)N(Cc1ccccc1)CC2 | -43.5% |
| CCN(Cc1ccccc1)C(=O)c1cccc(S(=O)(=O)N2CCN(c3ccccc3)CC2)c1 | -15.8% |
| CCCCn1c(N)c(N(CCOC)C(=O)CSc2ccccc2C)c(=O)[nH]c1=O | -26.6% |
| COC(=O)c1c(NC(=O)C2CCCO2)sc2c1CCC2 (stereo not shown) | -3.4% |
| Cc1cc(C(=O)NC(C)CCc2ccccc2)ccc1[N+](=O)[O-] (stereo not shown) | -29.5% |
| C#CCNC(=O)C1=C[C@@H](c2ccc(Br)cc2)C[C@@H](OCc2ccc(CO)cc2)O1 | 16.6% |
| CCOC(=O)c1cc(-c2ccccc2)sc1NC(=O)CN1C(=O)c2ccccc2C1=O | 8.68% |
| COc1ccc(N(CC(=O)NCc2cccs2)S(=O)(=O)c2ccc(F)cc2)cc1 | -0.742% |
| Clc1ccc(COn2c(-c3ccccc3)nc3ccccc32)cc1 | 5.78% |
| O=C(COC(=O)c1cccs1)Nc1nc(-c2ccccc2)cs1 | 4.55% |
| CC1CCN(S(=O)(=O)c2cc(Br)cc(C(=O)NC3=NCCS3)c2)CC1 | -4.17% |
| Clc1ccc(CSCCc2ccncc2)cc1.O=P(O)(O)O | -20.4% |
| C=C1C(C(=O)Nc2cccc(OC)c2)C1C(=O)Nc1cccc(OC)c1 (stereo not shown) | 10.1% |
